Source: PubChem BioAssay AID662 (National Center for Advancing Translational Sciences (NCATS), 2007)
Among all 71,000 compounds or so, about 1,800 (2.5%) were called active. This list was built around the results that the source calls inconclusive (neither active nor inactive); the mix of calls is not that of the screen. Calls follow the shape of the dose curve; as a rule, active = well fitted activation curve with a large enough effect in the signal ratio, with a control signal flat (not every such curve was filed as active); inconclusive = small, poorly fitted or top-dose-only effect, or effect the other way, or a change in a side signal; inactive = flat fitted curve, though single readings scatter; the % refers to the signal ratio. A potency beside an inconclusive call is a rough fit, not a confirmed value.

experiment: Cell signaling CRE-BLA (Fsk stim); conditions: CHO CRE-bla reporter (cAMP response element driving beta-lactamase), forskolin EC10, beta-lactamase ratio; activity change, negative = inhibition: at 38.2 µM (top of the series) unless noted; as to activity change, negative = inhibition: % of control where 0% means no effect
Procedure, shortened: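 Cells were plated overnight at 37 °C, exposed to compound titrations plus EC10 NKH 477 for 3 h, then given CCF4 dye for 2 h at room temperature. Blue/green (460/530 nm) ratio was converted to %Activity and AC50 values calculated.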
Potency is read from the fitted curve at half-maximal effect; tags tell the direction and shape of the fitted curve.

Structure (SMILES) | Potency | activity change, negative = inhibition
CCn1nc(NC(=O)c2ccncc2)c2cc3cccc(C)c3nc21 | active: 5.01 µM | –
N#C/C(=C\c1ccc(O)c(O)c1)C(N)=O | – | inconclusive: -15.9%
O=C(Nc1ccccc1N1CCCC1)c1ccco1 | – | inactive: -2.77%
CC1CCN(CCCNC(=O)c2n[nH]c(=O)c3ccccc23)CC1 | – | inactive: 9.66%
Cn1c(=O)n(Cc2ccccc2)c(=O)c2c1nc1n2CCS1 | – | inconclusive: 21.3%
O=C(NCc1cccs1)c1nn2cccnc2c1Cl | – | inconclusive: 28.5%
CC(=O)NC(CCS(C)(=O)=O)C(=O)Nc1nccs1 (centres undefined) | – | inconclusive: -7.35%
CCOC(=O)N1CCN(C(=O)Cc2ccc(-n3c(=O)[nH]c4ccccc4c3=O)cc2)CC1 | – | inactive: -2.85%
CCOC(=O)C(C(C)=O)c1nc(C)nc2c1nnn2Cc1ccccc1Cl (centres undefined) | inconclusive: 10 µM [rising, partial curve] | –
c1ccc(CCc2nn3c(Cn4nnc5ccccc54)nnc3s2)cc1 | – | inconclusive: 8.52%
CCc1ccc2oc(=O)cc(CN3CCN(CCO)CC3)c2c1 | – | inconclusive: 6.15%
OCCN1CCN(c2nc(-c3ccccc3)nc3c2oc2ccccc23)CC1 | inconclusive: 7.94 µM [rising, partial curve] | –
CC(C)C[C@@H](CC(=O)N[C@@H](CCC(=O)O)CC(=O)O)NC(=O)[C@@H]1CNCC[C@H]1NC(=O)C[C@H](CCCN)NC(=O)C[C@H](Cc1ccccc1)NC(=O)[C@@H]1CNCC[C@H]1N | – | inactive: -15.6%
C=CCc1cccc2cc(C(=O)N(C)C)c(=O)oc12 | – | inconclusive: 11.8% [at 7.6 µM]
Cc1nnc(SCC(=O)NC(C)(C)C)n1CCc1ccccc1 | – | inconclusive: 1.65%
CCCc1cc(=O)n2[nH]c(C)cc2n1 | – | inactive: -2.17%
O=c1cc(Nc2ccc3c(c2)OCCO3)[nH]c(=O)n1C1CCCCC1 | inconclusive: 25.1 µM [falling, single point] | –
O=c1c(-c2ccc(Cl)cc2)nc2cnc(N3CCOCC3)nc2n1C1CC1 | inconclusive: 15.8 µM [rising, partial curve] | –
COc1ccc(C(=O)Nc2ccc(Cl)cc2C(=O)NCc2ccco2)cc1OC | inconclusive: 10 µM [rising, partial curve] | –
Cc1csc(NC(=O)c2c(O)c3cccc4c3n(c2=O)CCC4)n1 | – | inactive: -7.66%
COc1ccccc1C(c1nnnn1C(C)(C)C)N1CCCCCC1 (centres undefined) | – | inactive: -3.33%

Structure (SMILES) | Potency | activity change, negative = inhibition
O=C(CSc1nc2c(c(=O)n1-c1ccc(Cl)cc1)SCC2)Nc1ccc2c(c1)OCCO2 | – | inconclusive: -6.7%
CC(C)CCNC(=O)NC(=O)CSc1nnc(-c2ccccc2F)n1N | inconclusive: 5.01 µM [falling, single point] | –
CCn1c(C)nc2cc(C(=O)OCCC(F)(F)F)ccc21 | – | inactive: 10.1%
CCCN1Cc2cccc(C(=O)Nc3ccc(N4CCN(CC)CC4)cc3)c2C1=O | active: 3.98 µM | –
Cc1ccc(OCCN2CCN(C(=O)CCC(=O)Nc3nnc(C)s3)CC2)cc1 | active: 7.94 µM | –
Cn1c(C(=O)NCCCN2CCN(c3ccccc3F)CC2)cc2c(=O)n(C)c3ccccc3c21 | inconclusive: 5.01 µM [rising, full curve, poor fit] | –
COC(=O)c1ccccc1OC(=O)c1ccc(Br)o1 | – | inconclusive: -2.77%
CCOc1cccc(C(=O)Nc2ccccc2OC(F)F)c1 | – | inconclusive: 2.6%
COc1ccc(-n2c(=O)cc(N3CCCCCC3)[nH]c2=O)cc1 | – | inconclusive: -5.16%
Nc1cc([N+](=O)[O-])ccc1C(=O)O | – | inactive: -4.08%
CCS(=O)(=O)N1CCC(C(=O)NCCCN2CCC(Cc3ccccc3)CC2)CC1 | – | inconclusive: -15.8%
CCOc1ccc(C(=O)Nc2ccc(N3CCCC3)cc2)cc1 | – | inactive: -6.84%
CCOC(=O)c1sc2ncn(C(CC)C(=O)OCC)c(=O)c2c1C (centres undefined) | inconclusive: 10 µM [rising, partial curve] | –
CCOC(=O)C1CCCN(C(=O)c2ccccc2SCCOC)C1 (centres undefined) | – | inactive: 5.18%
Cc1cc(C)cc(OCc2nnc(SCC(=O)c3ccccc3)o2)c1 | – | inactive: -2.23%
COc1ccc(CCNC(=O)COC(=O)c2cnc(C)cn2)cc1OC | – | inactive: 5.76%
COc1ccc(Cn2nnnc2C(CC(C)C)N2CCN(c3ccccc3)CC2)cc1 (centres undefined) | – | inconclusive: -15.8%
Cc1noc(C)c1C(=O)N1CCC[C@@]2(CCN(C(=O)NC(C)C)C2)C1 | – | inactive: 0.525%
Cc1c(C)c2cc(Cl)c(O)c(CN(C)C)c2oc1=O | active: 10 µM | –
COC(=O)c1cn(NC(=O)C2CCCO2)c(=O)c2ccccc12 (centres undefined) | – | inconclusive: -0.0365%
CC(C)C(=O)Nc1cccc(C(=O)NCc2ccc3c(c2)OCO3)c1 | – | inconclusive: -4.43%

Structure (SMILES) | Potency | activity change, negative = inhibition
CCC1CCCCN1Cc1nc2c(c(=O)n(C)c(=O)n2C)n1CCC(C)C (centres undefined) | inconclusive: 12.6 µM [rising, partial curve] | –
COc1ccc(CCn2c(N)cc(=O)[nH]c2=S)cc1OC | inconclusive: 12.6 µM [rising, partial curve] | –
CCOC(=O)N1CCN(C(=O)c2ccc3c(=O)n(Cc4ccccc4)c(=S)[nH]c3c2)CC1 | – | inconclusive: 4.93%
CCNc1ncc2nc(C)c(=O)n(Cc3cccs3)c2n1 | active: 10 µM | –
COc1ccc(S(=O)(=O)N2C3CCC2CC(NC(=O)C2CC2)C3)cc1 (centres undefined) | – | inconclusive: -11.1%
COc1ccc(C)cc1NC(=O)C1C2C=CC(C2)C1C(=O)O (centres undefined) | – | inactive: 4.52%
O=C(CN1CCC(O)(c2ccc3c(c2)OCO3)CC1)OC1CCCCC1 | – | inactive: 3.76%
CC(=O)Nc1cc(C(=O)N2CCOCC2)ccc1S(=O)(=O)c1ccc(C)cc1 | inconclusive: 0.316 µM [rising, partial curve] | –
Fc1ccc2c(c1)[C@H]1OCC[C@H]1[C@@H](c1ccco1)N2 | inconclusive: 12.6 µM [rising, single point] | –
Nc1cc2c(nc3c4ccccc4c(N)cc3[n+]2-c2cccc3ccccc23)c2ccccc12 (tested in a mixture with another compound) | – | inconclusive: 1.76% [at 7.6 µM]
COc1ccc2c(=O)c3c(=O)n(Cc4ccco4)c(-c4cc(OC)c(OC)c(OC)c4)nc3oc2c1 | inconclusive: 6.31 µM [rising, single point] | –
Clc1ccccc1-c1nc(NC2CCNCC2)c2ccccc2n1 | – | inactive: 2.3%
CCOc1ccc(N(CC(=O)NC(C)(C)C)C(=O)c2ccco2)cc1 | – | inconclusive: 5.31%
O=C(NCc1ccco1)c1noc2c1CCCC2 | inconclusive: 0.00316 µM [falling, full curve, poor fit] | –
COc1cc(/C=C\C(=O)N2CCC=CC2=O)cc(OC)c1OC | – | inconclusive: -17.5% [at 17.1 µM]
COCCCNC(=O)C1CCN(C(=O)c2cc3sccc3n2Cc2ccc(F)cc2)CC1 | inconclusive: 3.16 µM [rising, single point] | –
CCc1nc(N2CCCCC2)c2oc3ccccc3c2n1 | active: 7.94 µM | –
O=C(NCC1COc2ccccc2O1)C1CCCN(S(=O)(=O)c2cnc[nH]2)C1 (centres undefined) | – | inactive: -6.49%
CCOC(=O)C1=C(C)NC2=C(C(=O)CCC2)C1c1cccnc1 (centres undefined) | – | inconclusive: 17.6%
O=C(CCCCn1c(=O)c2ccccc2n(CC(=O)NC2CCCC2)c1=O)NC1CCCC1 | – | inactive: -2.45%
Cc1cccc(C)c1NC(=O)C1(N2CCN(C(=O)c3ccco3)CC2)CCCCC1 | – | inactive: -1.5%

Structure (SMILES) | Potency | activity change, negative = inhibition
COc1ccc(NC(=O)c2ccc3c(=O)n(Cc4ccco4)c(=S)[nH]c3c2)c(OC)c1 | – | inconclusive: -0.444%
Cc1ccc2nc(Nc3ncc4c(n3)CCCC4=O)nc(C)c2c1 | inconclusive: 10 µM [rising, partial curve] | –
COC(=O)c1ccc(C(NC(=O)OCc2ccccc2)/C(=C/[C@@H](C)C(=O)NCc2ccncc2)c2cccnc2)cc1 (some centres undefined) | – | inactive: -12.2%
C=CCSc1nc(N)c(C#N)c(-c2ccccc2)c1C#N | inconclusive: 12.6 µM [rising, partial curve] | –
CCC(C)(C)NC(=O)CC(c1ccc(OC)cc1)n1cccc1 (centres undefined) | inconclusive: 0.0158 µM [falling, full curve, poor fit] | –
O=C(CN1CCOCC1)OCCCC1CCCCC1 | – | inactive: 13.6%
CCN(CC)CCNC(=O)c1c(O)c2c([nH]c1=O)CCCC2 | – | inconclusive: -2.86%
Cc1cc(=S)n(-c2ccccc2)n1C | – | inconclusive: 5.48% [at 7.6 µM]
Clc1ccccc1-c1cc(NCc2ccccc2)ncn1 | – | inconclusive: 20.7%
CCN1CCN(C(=O)c2ccc3c(=O)n(CCC4=CCCCC4)c(=O)[nH]c3c2)CC1 | inconclusive: 0.02 µM [falling, full curve] | –
CC(C)(C)SCCNC(=O)COc1ccc(Cl)cc1 | – | inconclusive: 2.17% [at 7.6 µM]
O=C(COc1cccc(C(F)(F)F)c1)NCCCN1CCCC1=O | – | inactive: -1.73%
O.O.O.O.O.O.O.O=S(=O)([O-])[O-].[Co+2] | – | inactive: -8.17%
O=C(COc1ncnc2ccccc12)c1ccc2c(c1)OCCO2 | inconclusive: 0.126 µM [falling, single point] | –
O=C(Nc1cc2nn(-c3ccccc3)nc2cc1Cl)c1ccco1 | – | inactive: -11.1%
COC(=O)Cc1ccc(NC(=O)c2ccc(Br)o2)cc1 | – | inconclusive: 0.714%
Cc1noc(C)c1COC(=O)COc1ccc2c(C)cc(=O)oc2c1 | – | inactive: 7.89%
Cc1noc(C)c1COC(=O)c1cc2c(C)nn(-c3ccc(F)cc3)c2s1 | – | inactive: -1.7%
CN(C)CCNc1oc(COc2ccc(-c3ccccc3)cc2)nc1C#N | – | inconclusive: 18.6%
O=C(c1ccccc1)[C@@H]1O[C@H]1c1ccc(-c2ccccc2)cc1 | – | inconclusive: -10.4%
COc1ccc(C(=O)NC(C)c2nc3ccccc3n2C)cc1OC (centres undefined) | inconclusive: 6.31 µM [rising, partial curve] | –
